Data published in PubChem BioAssay AID686978 (National Center for Advancing Translational Sciences (NCATS), 2013).
Hit rate of the full screen: of about 420,000 compounds, about 64,000 (15%) were called active. The shares of active, inactive and inconclusive entries below differ from those in the screen. The call rests on the fitted dose curve; in most records, active means well fitted inhibition curve with a large enough effect; inconclusive means small, poorly fitted or top-dose-only effect; inactive means flat fitted curve, though single readings scatter. No potency is given beside an inconclusive call; the fits are too rough.

Assay: qHTS for Inhibitors of human tyrosyl-DNA phosphodiesterase 1 (TDP1): qHTS in cells in absence of CPT; further: nearly all actives have a fitted effect of over 55% in size
Conditions: DT40 Tdp1-/- hTDP1 cells, no CPT, ATP luminescence, 48 h; activity change, negative = growth inhibition: at 46.2 µM (top of the series) unless noted
How it was run: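 DT40 Tdp1-/-;hTDP1 cells, no CPT (DMSO vehicle only), 400 cells/well; compounds pin-transferred; ≥48 hr, 37 °C; CellTiter-Glo 30 min RT dark, luminescence read.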
On the % scale 0 is the no-effect control and ±100 the full control effect; potency means the concentration at half of the fitted maximal effect; tags describe the fitted curve by direction and shape.

Row | SMILES | Potency | activity change, negative = growth inhibition
1 | O=S1(=O)N=C(Nc2cccc(C(F)(F)F)c2)c2ccccc21 | inconclusive [inhibitor, single point] | 
2 | COc1ccc(C(=O)c2ccc(Br)cc2)c2ccccc12 | inconclusive [inhibitor, single point] | 
3 | O=[N+]([O-])c1cccc(Oc2cnccn2)c1 |  | inactive: -10.9%
4 | O=c1c2ccccc2c(C=Nc2cccc(S(=O)(=O)NCc3ccco3)c2)c(O)n1-c1ccc(Cl)cn1 | inconclusive [inhibitor, partial curve] | 
5 | Cc1cc(=O)[nH]c2n[nH]c(-c3ccccc3)c12 | inconclusive [inhibitor, partial curve] | 
6 | CN(C)CCN(Cc1ccc(Cl)cc1)c1ccccn1 | inconclusive [inhibitor, single point] | 
7 | O=C(NCc1cccs1)c1cnc(Cl)c(Cl)c1 |  | inactive: -23.2%
8 | COCCCn1c(=O)c2ccccc2n(CC(=O)NCCC2=CCCCC2)c1=O |  | inconclusive: -30.5% [inhibitor]
9 | CCN(CC)CCCNC(=O)c1cc2nc(-c3ccccc3)cc(C(F)(F)F)n2n1 |  | inactive: 4.45%
10 | COc1cccc(C(=O)N(Cc2cccc(Cl)c2)Cc2ccco2)c1 | active: 14.6 µM | 
11 | O=C(CSc1nc2ccccc2[nH]1)N1CCN(S(=O)(=O)c2ccc(Cl)cc2)CC1 | inconclusive [inhibitor, single point] | 
12 | CCOC(=O)[C@H]1Nc2ccc(Cl)cc2[C@@H]2[C@H]1C1CC(c3ccccc31)N2C(=O)OCc1ccccc1 (some centres not stated) | inconclusive [inhibitor, single point] | 
13 | CCC(=O)Nc1cccc(-c2cn3c(C)csc3n2)c1 |  | inactive: -28.9%
14 | CCCC(=O)N1CCN(c2ccc([N+](=O)[O-])cc2Cl)CC1 | inconclusive [inhibitor, single point] | 
15 | O=C(NCC(c1ccco1)N1CCc2ccccc2C1)c1ccccc1Cl (configuration not stated) | inconclusive [inhibitor, single point] | 
16 | N#CCNC(=O)c1cccn1-c1ncc(C(F)(F)F)cc1Cl |  | inactive: 1.52%
17 | Cc1ccc(C)c(C(=O)Nc2nc3ccccc3[nH]2)c1 | active: 2.31 µM | 
18 | COc1ccc(Cl)cc1S(=O)(=O)Oc1ccc(NC(C)=O)cc1 | inconclusive [inhibitor, single point] | 
19 | CCOc1ccccc1C(=O)Nc1nnc(SCC(=O)N2CCOCC2)s1 | inconclusive [inhibitor, partial curve] | 
20 | CC(C)Nc1ncnc2ccc(Br)cc12 | active: 4.11 µM | 
21 | Cc1c(C(C)NC(=O)c2ccc3nc(Cc4ccccc4F)oc3c2)cnn1C (configuration not stated) | inconclusive [inhibitor, single point] | 
22 | Clc1ccc(-c2ccc(/C=N/Nc3cc(N4CCOCC4)nc(N4CCOCC4)n3)o2)cc1 | active: 16.4 µM | 
23 | N#CC1=C(N)SC(N)=C(C#N)C1CCc1ccccc1 | inconclusive [inhibitor, single point] | 
24 | CSc1nc2ccccc2cc1/C=C(\C#N)c1ccccc1 | inconclusive [inhibitor, single point] | 

Row | SMILES | Potency | activity change, negative = growth inhibition
25 | O=S1(=O)N=C(Nc2ccc(S(=O)(=O)N3CCCCC3)cc2)c2ccccc21 | inconclusive [inhibitor, single point] | 
26 | COc1ccc(CCN2CC(C(=O)Nc3nnc(Cc4ccccc4)s3)CC2=O)cc1OC (configuration not stated) | inconclusive [inhibitor, single point] | 
27 | Cc1oc(-c2ccc(Cl)cc2)nc1CS(=O)CC(=O)NCc1ccc2c(c1)OCO2 (configuration not stated) |  | inactive: -28.8%
28 | c1ccc2c(c1)CCCN2c1nc2ccccc2n2cnnc12 | inconclusive [inhibitor, single point] | 
29 | CCn1c(CNC(=O)c2ccccc2F)cc2cc(C)ccc21 |  | inactive: -18.2%
30 | Cc1ccc2cccc(NC(=S)NC(=O)c3c(Br)cnn3C)c2n1 | inconclusive [inhibitor, partial curve] | 
31 | C[C@H](CO)N1C[C@H](C)[C@@H](CN(C)C(=O)Nc2ccccc2)Oc2ccc(NC(=O)Cn3cnnn3)cc2C1=O |  | inactive: 11.4%
32 | CC(C)(C)c1ccc(OCC(=O)Nc2c(C(=O)c3ccc(F)cc3)oc3ccccc23)cc1 | inconclusive [inhibitor, single point] | 
33 | c1ccc(-c2nc(NCCCn3ccnc3)c3ccccc3n2)cc1 |  | inactive: -18.4%
34 | O=C(NCC1CC1)c1ccc(Oc2cc(Cl)cc(Cl)c2)o1 | inconclusive [inhibitor, partial curve] | 
35 | CCOC(=O)c1ccccc1NC(=O)CSc1ncc2c(n1)-c1ccccc1N(CC)S2(=O)=O | active: 16.4 µM | 
36 | COc1ccc(S(=O)(=O)Nc2ccccc2N2CCOCC2)cc1[N+](=O)[O-] |  | inactive: -13.3%
37 | CCOCCCn1c(=NC(C)=O)c(C#N)cc2c(=O)n3cccc(C)c3nc21 | inconclusive [inhibitor, single point] | 
38 | COc1ccccc1NC(=O)COC(=O)CCn1c(C)csc1=O |  | inactive: 3.57%
39 | CCC1(C2CCN(C(=O)c3cc4ccccc4o3)CC2)NC(=O)N(CCc2scnc2C)C1=O (configuration not stated) | inconclusive [inhibitor, partial curve, poor fit] | 
40 | NS(=O)(=O)Cc1noc2ccccc12 | inactive | 
41 | COc1ccc(-c2coc3cc(O)ccc3c2=O)cc1OC |  | inactive: -2.35%
42 | Cc1ccc(C(=O)O)cc1-n1c(C)cc(C=O)c1C |  | inactive: -0.0302%
43 | CCn1c(=S)[nH]c2cc(C(=O)OC)ccc2c1=O | inconclusive [inhibitor, single point] | 
44 | O=C1c2ccccc2S(=O)(=O)c2cc(N3CCN(C(=O)c4ccccc4)CC3)ccc21 | active: 20.6 µM | 
45 | CC(C)(C)C(=O)NC(=S)Nc1ccc(C(F)(F)F)cc1 | inconclusive [inhibitor, single point] | 
46 | COc1ccc(S(=O)(=O)N2CCCCCC2)cc1C(=O)N(C)Cc1ccc(Cl)cc1Cl | inconclusive [inhibitor, single point] | 
47 | O=C(NCC(=O)N(Cc1ccccc1)C(C(=O)NC1CCCCC1)c1ccco1)c1ccco1 (configuration not stated) | inconclusive [inhibitor, single point] | 
